Assay results as given in PubChem BioAssay AID488969 (Vanderbilt High Throughput Screening Facility, 2010).
Whole data set: some 110,000 compounds, median “z-score” near -0.1, cut for the highest 2% near 2. The list shows a part of the results. Active and inactive are the calls of the source.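 How the source made its calls: active means z-score in the third read window above 3 or below -3; inactive means the rest.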

Biological target: Metabotropic glutamate receptor 8 (Rattus norvegicus) (UniProt P70579)
Sequence of UniProt P70579 (P70579 whole entry, looked up): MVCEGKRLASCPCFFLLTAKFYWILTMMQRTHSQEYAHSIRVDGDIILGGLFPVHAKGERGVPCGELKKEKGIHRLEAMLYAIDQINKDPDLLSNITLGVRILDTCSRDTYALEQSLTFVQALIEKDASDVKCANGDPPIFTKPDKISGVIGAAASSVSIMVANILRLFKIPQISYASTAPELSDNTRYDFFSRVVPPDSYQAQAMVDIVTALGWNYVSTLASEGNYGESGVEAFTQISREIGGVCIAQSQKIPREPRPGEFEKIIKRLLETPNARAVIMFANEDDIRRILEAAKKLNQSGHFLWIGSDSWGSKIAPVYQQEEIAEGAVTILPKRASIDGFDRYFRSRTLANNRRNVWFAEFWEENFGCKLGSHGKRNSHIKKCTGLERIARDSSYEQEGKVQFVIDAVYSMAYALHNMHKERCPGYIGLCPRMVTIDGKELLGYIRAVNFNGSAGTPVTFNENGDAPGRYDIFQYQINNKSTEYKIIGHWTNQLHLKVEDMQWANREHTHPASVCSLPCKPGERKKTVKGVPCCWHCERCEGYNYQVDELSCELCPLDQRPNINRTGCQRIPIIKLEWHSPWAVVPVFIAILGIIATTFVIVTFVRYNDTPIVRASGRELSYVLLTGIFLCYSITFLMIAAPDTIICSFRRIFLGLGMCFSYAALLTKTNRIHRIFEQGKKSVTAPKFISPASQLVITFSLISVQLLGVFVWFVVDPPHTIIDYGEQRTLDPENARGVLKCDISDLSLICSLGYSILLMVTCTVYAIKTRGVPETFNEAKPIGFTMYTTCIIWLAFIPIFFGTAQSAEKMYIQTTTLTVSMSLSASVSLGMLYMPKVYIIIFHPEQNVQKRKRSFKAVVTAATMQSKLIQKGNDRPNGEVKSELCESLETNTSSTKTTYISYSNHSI
Test: rat mGluR8 modulators via GIRK flux, primary screen, cell-based, thallium flux, HTS (AID 488969)
Conditions: HEK293 rat mGluR8, GIRK (G protein-gated inwardly rectifying potassium channel) thallium flux, FluoZin2; at 10 µM; stronger effect = higher value; submaximal glutamate (EC20) added with thallium

Row | SMILES | z-score
1 | CCN(C(=O)COC(=O)c1ccccc1Nc1cccc(C)c1C)C1CCS(=O)(=O)C1 (stereo not given) | 0.0398
2 | COc1cccc2cc(C(=O)NCC3CCCO3)c(=O)oc12 (stereo not given) | -0.108
3 | O=C1/C(=C\Nc2ccc(OC(F)(F)F)cc2)CCN1c1ncccn1 | 0.0056
4 | CCOC(=O)c1cc(-c2ccncc2)nc2c1c(C)nn2-c1ccccn1 | -2.01
5 | COc1ccccc1CNC(=O)CN1C(=O)C(C)N(c2ccc(C)cc2)C1=O (stereo not given) | -0.66
6 | CN(c1ccc(C(=O)Nc2ccc3c(c2)OCCO3)cc1)S(C)(=O)=O | -0.209
7 | Cn1c(C(=O)NCc2cccnc2)cc2sccc21 | 0.077
8 | N#CC(c1ccc(Cl)nn1)c1ccc(Cl)cc1Cl (stereo not given) | -0.287
9 | CC(C)NS(=O)(=O)c1ccc(CCC(=O)O)cc1 | -0.107
10 | Cc1cc(C)cc(-n2c(SCC(=O)NCc3ccc4c(c3)OCO4)nc3ccccc3c2=O)c1 | -0.107
11 | O=C(O)CCCC(=O)Nc1ccc(Sc2ccc([N+](=O)[O-])cc2)cc1 | -0.313
12 | O=C(/C=C/c1ccccc1Cl)Nn1cnc2ccccc2c1=O | -0.163
13 | O=C(CC(=O)c1ccccc1O)c1ccc(F)cc1 | active: 7.61
14 | CCOc1cc(CNn2cn[nH]c2=S)cc(Cl)c1OCc1ccccc1F | 0.108
15 | CCOC(=O)Nc1ccc2c(c1)N(C(=O)CN1CCN(C)CC1)c1ccccc1S2 | 0.133
16 | Cc1c(C2Nc3ccccc3C(=O)N2O)cnn1C (stereo not given) | 0.189
17 | CCc1c(C(=O)c2ccc(Cl)cc2)oc2c(C)c3oc(=O)cc(C)c3cc12 | -1.59
18 | COc1ccc(C(=O)Nc2ccc(N3CCOCC3)cc2)cc1OC | -0.0901
19 | O=C(NNC(=O)c1cccnc1)Nc1cccc2ccccc12 | -0.144
20 | CCOc1cc(C(=O)OCC(=O)Nc2c(C)cccc2C)ccc1OCC(=O)N1CCOCC1 | -0.274
21 | CCCC(=O)Nc1ccc(N2CCOCC2)cc1 | 0.225
22 | Cc1ccc(-n2nc(C)c3cc(C(=O)O)sc32)cc1 | -0.377
23 | COc1ccc(N2CCN(C(=S)NCCc3ccccc3)CC2)cc1 | -0.245
24 | Cc1cc(F)ccc1S(=O)(=O)Nc1ncnc2scc(-c3ccc(F)cc3)c12 | -1

Row | SMILES | z-score
25 | C=CCNC(=S)NNC(=O)c1csc(C)c1C | -0.26
26 | O=C(/C=C/c1ccccc1)N1CCN(c2ccccn2)CC1 | -0.288
27 | Cc1cc(C(=O)NCc2ccccc2)c(=O)[nH]c1C | 0.0221
28 | Cc1ccc2cccc(Oc3ncnc4scc(-c5ccc(Cl)cc5)c34)c2n1 | -0.0666
29 | CC(=O)c1c(C)oc2ccc(O)c(CN3CCOCC3)c12 | 0.000118
30 | COCCCNC(=S)NC1CC2CCCC(C1)N2Cc1ccco1 (stereo not given) | -0.0727
31 | CCN(CC)C(=O)C(C)N(C#N)c1nc(NC(C)C)nc(NC(C)C)n1 (stereo not given) | 0.373
32 | COc1cc(COCC(O)CN2CCOCC2)cc(OC)c1OC (stereo not given) | 0.414
33 | Cn1c(=O)c(=O)n(C)c2cc(S(=O)(=O)Nc3ccc4c(c3)OCCO4)ccc21 | -1.23
34 | CCOC(=O)N1CCN(C(=O)C2CC(c3ccc(F)cc3)=NO2)CC1 (stereo not given) | 1.96
35 | COc1nc(OC)nc(N2CCCCCC2)n1 | 0.193
36 | COc1ccc(CNC(=O)C(c2ccco2)N(C(=O)c2csnn2)c2cccc(C)c2C)cc1 (stereo not given) | 0.695
37 | COc1cc(NC(=O)CN(c2cc(C)cc(C)c2)S(=O)(=O)c2c(C)noc2C)cc(OC)c1 | -0.0897
38 | CCN(CC)c1c2c(c(C#N)c3nc4ccccc4n13)CCC2 | -2.55
39 | O=C(Nc1c(F)cc(F)cc1Br)c1cccnc1 | 0.116
40 | CNC(=O)N(c1ccccc1)c1ccccc1 | 0.234
41 | COc1cccc(-n2ccnc2SCC(=O)N2CCc3ccccc32)c1 | -0.163
42 | Cc1ccc(C(=O)COC(=O)CCC(=O)Nc2cccc(Cl)c2)cc1[N+](=O)[O-] | 0.094
43 | Nc1ccc(N(c2ccccc2)c2ccc(N)cc2)cc1 | 0.0499
44 | COc1cccc(OC)c1C(=O)Nc1ccc(CN2CCOCC2)cc1 | 0.678
45 | O=C(CSc1cn(Cc2ccccc2)c2ccccc12)N1CCOCC1 | -0.89
46 | CC(C)OC(=O)c1c(N)sc2c1CCCC2 | 2.03
47 | Cc1ccc(-c2ccc(/C=N/N=C3/NC(=O)C(CC(=O)O)S3)o2)c([N+](=O)[O-])c1 (stereo not given) | -0.36
48 | CCOC(=O)c1cnc2ccc(C)cc2c1NCCO | -0.283

Row | SMILES | z-score
49 | CCCCn1c(=NC(=O)c2ccco2)c(C(=O)OCC)cc2c(=O)n3ccccc3nc21 | -1.49
50 | COc1cc(CNCCc2c[nH]c3ccccc23)ccc1OCc1ccc(F)cc1 | active: 3.41
51 | CCSc1ncc(Cl)c(C(=O)Nc2ccc(S(=O)(=O)Nc3onc(C)c3C)cc2)n1 | -1.78
52 | CCOP(=O)(OCC)C(C)(C)NC(=O)c1cc([N+](=O)[O-])cc([N+](=O)[O-])c1 | 0.532
53 | CCCS(=O)(=O)N1CCC(C(=O)N2CCN(Cc3ccccc3)CC2)CC1 | 0.118
54 | CC(=O)c1c(C(C)=O)c(C)n(-c2cccc([N+](=O)[O-])c2)c1C | -0.308
55 | O=C(NCCCc1ccccc1)C1CCN(c2nnc(-n3cccc3)s2)CC1 | -0.0334
56 | O=C(c1cc2ccccc2o1)N1CCN(S(=O)(=O)c2cccs2)CC1 | -0.157
57 | O=C(COc1cccc2ccccc12)N/N=C/c1ccc(Sc2nc3ccccc3s2)o1 | 0.351
58 | CCS(=O)(=O)N1CCCC(C(=O)NCC2CCCO2)C1 (stereo not given) | -0.303
59 | Cc1cc(C)c2c(=O)[nH]n(C3CCOC(C)(C)C3)c2n1 (stereo not given) | -0.311
60 | COc1ccc(C(NC(C)=O)c2c(O)ccc3ccccc23)cc1OC (stereo not given) | 1.73
61 | O=C1C=CC(=O)N1CCCCCCN1C(=O)C=CC1=O | 0.367
62 | O=C(N/C(=C/c1cccc([N+](=O)[O-])c1)C(=O)N1CCCCCC1)c1cccs1 | -0.315
63 | Cc1c(C(=O)c2no[n+]([O-])c2C(=O)c2cnn(C)c2C)cnn1C | 0.0604
64 | Clc1ccc(-c2nnc(-c3ccccc3)o2)c(Cl)c1 | 0.405
65 | CCn1nc([N+](=O)[O-])c(C(C#N)c2nc3cc(C(F)(F)F)ccc3s2)c(Cl)c1=O (stereo not given) | 2.97
66 | Cc1ccccc1NC(=S)N1CCCC1 | 0.248
67 | CC(=O)c1c(C)[nH]c(C(=O)OCC(=O)Nc2cc(S(=O)(=O)N3CCCC3)ccc2Cl)c1C | 0.262
68 | COc1ccc(CCNS(=O)(=O)c2ccc(N3CCCC3=O)cc2)cc1 | 0.117
69 | O=C(NCc1ccc(Cl)cc1Cl)c1ccc2nc[nH]c2c1 | 0.0902
70 | Cc1cccc(-c2noc(CN(C(=O)C(c3ccccc3)c3ccccc3)C(C)C)n2)c1 | -0.488
